In this experiment the test system is HCV RNA replicon ET (luc-ubi-neo/ET). Put plainly: microbe, parasite or virus in culture. The conditions noted are these: for IC50: Hepatitis C virus, 72 h, read-out: Anti-Hepatitis Activity (Replicon Assay) IC50. The text has this: The cell line ET (luc-ubi-neo/ET), a new HCV RNA replicon that contains a stable luciferase (LUC) reporter, was used. The composition of the replicon is shown diagrammatically above (ref, Krieger, N., V. Lohmann, and R. Bartenschlager. 2001. Enhancement of hepatitis C virus RNA replicon replication by cell culture-adaptive mutations. J. Virol. 75:4614-4624). The HCV RNA replicon ET contains the 5′ NTR (IRES) of HCV (5′) which drives the production of a firefly luciferase (Luc), ubiquitin (Ubiq), and neomycin phosphotransferase (Neo) fusion protein. Ubiquitin cleavage releases the LUC and Neo genes. The EMCV IRES element (E-I) controls the translation of the HCV structural proteins NS3-NS5.
The NS3 protein cleaves the HCV polyprotein to release the mature NS3, NS4A, NS4B, NS5A and NS5B proteins that are required for HCV replication. At the 3′ end of the replicon is the authentic 3′ NTR of HCV. The LUC reporter is used as an indirect measure of HCV replication. The activity of the LUC reporter is directly proportional to HCV RNA levels and positive control antiviral compounds behave comparably using either LUC or RNA endpoints. The use of the LUC endpoint is more economical than HCV RNA and can be used for high-throughput applications to screen libraries of compounds.

Regarding `Fc1ccc2c(c1)COB2c1cccc(Cl)c1` [Compound 11, 1-(3-Chlorophenyl)-5-fluoro-1,3-dihydrobenzo[c][1,2]oxaborole], the “Anti-Hepatitis Activity (Replicon Assay) Selectivity Index” value was 1.5 and the IC50 was 13 µM.
For `Clc1cccc(B2OCc3ccccc32)c1` [Compound 12, 1-(3-Chlorophenyl)-1,3-dihydrobenzo[c][1,2]oxaborole], the “Anti-Hepatitis Activity (Replicon Assay) Selectivity Index” value was 2.4 and the IC50 stood at 30.6 µM.
Regarding `Fc1cccc(B2OCc3cc(Cl)ccc32)c1` [Compound 13, 5-Chloro-1-(3-Fluorophenyl)-1,3-dihydrobenzo[c][1,2]oxaborole], the “Anti-Hepatitis Activity (Replicon Assay) Selectivity Index” value is 11 and the IC50 came out at 3.93 µM.
For `N#Cc1cccc(B2OCc3ccccc32)c1` [Compound 14, 3-(Benzo[c][1,2]oxaborol-1(3H)-yl)benzonitrile], the “Anti-Hepatitis Activity (Replicon Assay) Selectivity Index” value came out at 2.5 and the IC50 was found to be 2.86 µM.
For the compound `Fc1ccc2c(c1)B(c1cccc(Cl)c1)OC2` [Compound 15, 1-(3-Chlorophenyl)-6-fluoro-1,3-dihydrobenzo[c][1,2]oxaborole], the “Anti-Hepatitis Activity (Replicon Assay) Selectivity Index” value turned out to be 11 and the IC50 amounted to 6.01 µM.
Consider `Clc1ccc(B2OCc3ccccc32)cc1` [Compound 17, 1-(4-Chlorophenyl)-1,3-dihydrobenzo[c][1,2]oxaborole], for which the “Anti-Hepatitis Activity (Replicon Assay) Selectivity Index” value was determined as 33 and the half-maximal inhibitory concentration (IC50) amounted to 8.59 µM.
For `N#Cc1ccc(B2OCc3ccccc32)cc1` [Compound 18, 4-(Benzo[c][1,2]oxaborol-1(3H)-yl)benzonitrile], the IC50 is 1.94 µM.
Turning to `N#Cc1ccc(B2OCc3cc(F)ccc32)cc1` [Compound 19, 4(5-Fluorobenzo[c][1,2]oxaborol-1(3H)-yl)benzonitrile], the “Anti-Hepatitis Activity (Replicon Assay) Selectivity Index” value stood at 14 and the IC50 was 3.73 µM.
For the compound `N#Cc1cccc(B2OCc3cc(F)ccc32)c1` [Compound 20, 3-(5-Fluorobenzo[c][1,2]oxaborol-1(3H)-yl)benzonitrile], the “Anti-Hepatitis Activity (Replicon Assay) Selectivity Index” value is given as 3.2 and the IC50 worked out at 19.5 µM.
In the same order, the values of `N#Cc1cccc(B2OCc3ccc(F)cc32)c1` [Compound 21, 3-(6-Fluorobenzo[c][1,2]oxaborol-1(3H)-yl)benzonitrile] are 7.9 and 5.48 µM.

Source of the values: patent publication US7968752B2, “Hydrolytically-resistant boron-containing therapeutics and methods of use” (Anacor Pharmaceuticals, Inc., priority 2003, dated 2011).
